Reference: the RNAGym collection of RNA variant scans (doi:10.7554/elife.90254)
Read counts are not given, so values of variants with three or more changes are uncertain.

B1: LINE1-full (parent)
chain: UACGUAGGUGGUUUUCCCCUGAUAGUGCUAAGGGGGCCUGGAAGUUUGGACUGGGCAGAGCUCAACACAGCGUGGCAAAGUGGCUGUGGCUAGACUGCCUCUCUGGAUUCCUCGUCACUCAGCAGGGCAUCUCUGAGAGAAAUGCC

Variants of: B1
Test: self-cleavage, relative activity (ratio to wild type); higher = more cleavage; in vitro, sequencing; the parent is a self-cleaving ribozyme

Variant | self-cleavage
U26C A31G G36A A64G U132C | 0.2
U104C A124G U132C | 1.13
U12C U13C A69G A124U | 0.48
U12C A22U G27A U52C U102A | 1.37
U23C U91C A117G | 1.23
U5A A57U U108C | 0.13
A30U U47C A67U | 0.32
U1C U39A U62C C71A | 0.03
G32U U45C U132C | 1.41
U14C A22U A69G U132C A142G | 0.71
A2G U73A U85C U87A U100C A136G A140G | 0
A64G A78G U130C | 0.43
U46C A50G A117U | 1.26
U1G A2G A67G U96C | 0
U45A A57G U81C | 1.66
G48A U52A A138G | 1.18
A30U A129G U132A | 1.81
U15C U26A U73A A78U U130C | 1.86
A43C A64G C120U U143C | 0.26
U1C A22U U73A U91C U115C | 0.19
U20A A42G U87C C111A A117C | 0
U12C G21U A117G U132C | 1.6
U12A U47A A50G | 1.46
A43C A57G A136G | 0.88

Variant | self-cleavage
U62A U91C U112A | 0.12
A50G U100C U134A A141G | 1.99
U26A A67G U96A U143C | 0.03
U20C U47C U62A | 0
U14C A59C A136G | 0.71
C28A U96C U102C | 0.09
G55A U102A A117G | 1.1
A22C C71U C131G | 0.92
U47A U85A A121U | 0.11
A65G U112C U130C A140G | 0
C38A U45G A142G | 0.96
U52C U119C A136U | 2.04
U14C A24G U62C U143C | 0.35
U15G U96A U112C | 0.68
U13A A42U U62A C90U A94U A129U | 0.02
U9C U96C C145U | 0
A22G A31C C37G | 0.8
G4A U13C A69C G126A | 0.29
U14A G40A A65C A121U | 0.03
U9C A42U U85C U108C U134C | 0
A2G U14C A64G U130C | 0.51
G34U G74A U81C | 1.01
G33A U73C U109C | 1.34
U26C U85C U112A A129G | 0

Variant | self-cleavage
U12C A42G C99G | 0.37
U62C U81A C128A | 0.02
U47A A77G A121U A124U A140G | 1.66
U15C G34A A92G G126A A136C | 0.09
A65U U73C G127A | 0.29
U12A A107G U109A | 2.32
U85C U108A A129G | 0.22
U13C U52C A59G | 0.25
U12A A57G U143C | 1.01
U15C U26A U47C G58A A138C | 0.06
U52A U87C A124U | 0.45
U91C U100C U143C | 0
A6G U9A G11A G97A | 0.12
U45C A69G A140G A141G | 0
U9A U14C A57G C98U | 0.16
G7U U14C A77G C84A A142G | 0.38
U9C U26G G48A A67G | 0.51
A50G U87A A140G | 0.03
G58U U100C U109C U130C | 0.05
U26C C37A G135A U143C | 0.99
A79G U134C A140G | 1.53
U9C U73G A92G A136G | 0.52
U12A G40A A69U G114A U130C | 0.06
G49U A69G G127A | 0.15

Variant | self-cleavage
U15A C37G A42G U62C | 0
U12C C71U C90G | 0.06
U15A A57U U85C | 0.21
G4A C19U U85C U112C A140G | 0.08
U12C U96A A121G | 0.14
C37G U96C U100C | 0.29
G35U U52C A59U U62A A129G A140U C145U | 0.05
U12G A107G A142U | 1.91
U29C A67G A78U | 0.66
U102A U109C U119C A140G | 1.91
A2U U12C A107U | 1.24
U5C A30G U119C | 0.68
A67G A78G A136G | 0.31
A59U A92G U96C U143C | 0.14
U14A U46C C68U U87C | 0
U1A U26G A138G | 0.47
A57G U87C C103U | 0.06
U14A A30G G35A | 0.67
C71U U100A C113A G114A A124G U143C | 0.08
G7U U9C U47A G127A | 2.14
A57U U73A U87C A141G | 0.01
A31G A67C U81C | 0
U85C G88A U100G U112G | 0
A2G A79U U115C | 1.2

Variant | self-cleavage
A30G U47A U108C G127A | 1
A43G A77G A117U U130C | 2.91
U115C U134C A140G | 1.19
U26C U29C G35A G41A U115A | 1.31
U14A U15C A77U A94G A121U | 0.14
A6U U29C U73C | 0
U9C U14C C38U | 0.98
A24U U45G A59G U87A | 0
U12G U15C C37G U62C G97A A141U | 0.24
U1C G44A U85A U91C | 0.19
U1C U29C A79U A142G | 1.26
A6C U12C A42U | 0.32
G25A A69U U100C U112A | 0.07
U12C G44A A65G | 0.17
U20C U39C U62C U73A U81C U104C A117U | 0
U9C U46C A59G A64U U85A A92G | 0.29
U26C G35A A107G | 1.54
G36C A42G U100C C128U | 1.85
U85C U108A A121G A141G | 0.24
U20A A67G U143C | 1.93
U39G C103A A124U | 1.38
A64C G70U A141G | 0.05
U100C A138G A140U | 2.04
U9C U13C A140G | 0.9

Variant | self-cleavage
U62C A77U G83U A121G A129G A141G | 0.02
U39A A69G U109A | 0.43
U1C G7C G144A | 1.02
C19U U26C A43U | 1.44
A30G A69G G106A | 0.18
U109A G114A A138U A140G | 1.25
G33A A50G U102C | 0.62
A64G U73A U85A | 0.05
U15A U81C U85C | 0.77
U26C U47C U119A | 1.45
U39C U96A A124G | 0.08
U47C A94U U112C | 0.52
A69U U73A A141G A142G | 0.02
G60A U112C U132A | 0.02
U15C U47C U109C A117U | 0.4
U12C A79G U87C | 0.69
A6G U81C A92U | 1.08
U26A A43G U85C U115C A141G | 0.28
G7A U15C C101U U119A | 1.15
G36C A42U U143C | 1.43
G35U U47C U52C C90U | 0.09
U12C G54U A64G U96C | 0.3
U14C C18U U81C A138G | 1.19
C111U U112C U130A A136G | 1.18

Variant | self-cleavage
A94U U102C U119C A142G | 0.14
U13A U15G A117G | 1.1
U62C A67U A78G | 0.13
U13A A59G U104A U119C | 0
U20C U108C A124C | 1.41
U9C U73C G127U | 0.66
U12C A30G G33A | 0.74
U132C A140U U143C | 1.37
G80A A138G A141G | 1.95
U14C U39A A59G A65U A94U A142U | 0.08
U13C A50U U62C U96C U119A A138G | 0
U29C U130C U134A | 1.17
U20C A65G U115A A136G | 0
A31U A79G U115C | 1.08
A78G U100C A124U A138U | 2.56
U5A U73C U100C | 2.3
U13A A43U G60A A69C | 0.06
U5C A6C A92G | 0.18
A67G A78G A140G A141G | 0.21
A42U A59G A117U | 0.13
U15C A50G A141G | 1.4
U9C U26C A50G G75A U96A | 0.09
A2G U14C U143C | 0.6
